In PubChem BioAssay AID624417 (National Center for Advancing Translational Sciences (NCATS), 2012):
The campaign covered roughly 410,000 compounds. About 6,400 (1.6%) were called active. The inconclusive results got no clear call from the source; some entries with a clear call stand among them for comparison. Calls come from the whole dose curve; as a rule, active = well fitted inhibition curve with a large enough effect; inconclusive = small, poorly fitted or top-dose-only effect; inactive = no such curve, though single readings can be large or run the other way. No potency is given beside an inconclusive call; the fits are too rough.

biological target: Glucagon-like peptide 1 receptor (Homo sapiens) (UniProt P43220); assay: qHTS of GLP-1 Receptor Inverse Agonists (Inhibition Mode); conditions: HEK293 GLP-1R CRE-luciferase, luminescence, 24 h, GLP-1R form is constitutively active; series mostly up to 38.3 µM; note: nearly all actives have a fitted effect of over 55% in size
Chain of UniProt P43220 (P43220 whole entry, looked up): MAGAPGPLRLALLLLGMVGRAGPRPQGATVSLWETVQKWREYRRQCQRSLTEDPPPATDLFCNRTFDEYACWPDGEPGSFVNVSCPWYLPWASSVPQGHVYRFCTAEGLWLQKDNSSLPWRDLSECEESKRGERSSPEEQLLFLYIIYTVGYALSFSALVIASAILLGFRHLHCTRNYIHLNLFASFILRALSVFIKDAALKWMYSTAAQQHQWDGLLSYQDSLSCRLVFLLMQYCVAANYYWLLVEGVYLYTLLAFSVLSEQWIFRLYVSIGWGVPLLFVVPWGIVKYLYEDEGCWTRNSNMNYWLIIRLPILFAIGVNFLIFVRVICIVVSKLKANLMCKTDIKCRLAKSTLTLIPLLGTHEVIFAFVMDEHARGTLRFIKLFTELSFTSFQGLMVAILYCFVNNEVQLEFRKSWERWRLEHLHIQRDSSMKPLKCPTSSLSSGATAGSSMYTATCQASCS
Method in brief: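 Constitutively active GLP-1R drives a cAMP-responsive luciferase in stably transfected HEK293 cells; test compounds are added after overnight (12 h) attachment and left 24 hr, and signal loss in luminescence marks inhibition.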
Potency is the fitted concentration of half-maximal effect; tags give direction and shape of the fitted curve.

Row | SMILES | Potency
1 | CCOC(=O)c1ccc(NC(=O)CSc2nnc(CNC(=O)c3c(F)cccc3Cl)o2)cc1 | inconclusive [inhibitor, full curve, poor fit]
2 | Cc1c(CC(=O)N2CCCCC2)c(=O)oc2cc3occ(C(C)(C)C)c3cc12 | inactive
3 | O=C(Nc1ccc(-c2nc3ccccc3[nH]2)cc1)c1ccc(N2C(=O)CCC2=O)cc1 | inactive
4 | CCC1=Nc2cc(C(=O)NCc3ccccc3OC)ccc2Sc2ccc(Cl)cc21 | inconclusive [inhibitor, single point]
5 | O=C(Nc1ccccc1)c1cccc(S(=O)(=O)Oc2ccc([N+](=O)[O-])cc2)c1 | inconclusive [inhibitor, partial curve, poor fit]
6 | CN(C)CCN(CC1CCCN(Cc2ccccc2F)C1)C(=O)c1ccc(Cl)cc1 (stereo not given) | inconclusive [inhibitor, partial curve, poor fit]
7 | O=S(=O)(NCc1ccccc1Cl)c1ccc(-c2cnc(C3CC3)o2)cc1 | inconclusive [inhibitor, partial curve, poor fit]
8 | CCOc1ccc(S(=O)(=O)N2CCN(C(=S)NCc3ccco3)CC2)cc1 | inconclusive [inhibitor, single point]
9 | COc1ccc(N2C(=O)CSC23C(=O)N(Cc2ccccc2F)c2ccccc23)cc1Cl (stereo not given) | inconclusive [inhibitor, partial curve, poor fit]
10 | Cc1nc2ccc(NC(=O)c3cccs3)cc2c(=O)n1Cc1ccc(Cl)cc1 | inconclusive [inhibitor, single point]
11 | Cc1cc(C)c(S(=O)(=O)N2CCCc3ccccc32)c(C)c1 | inconclusive [inhibitor, partial curve, poor fit]
12 | O=C(N/C(C(=O)N1CCOCC1)=C(\Sc1ncccn1)c1ccccc1)c1ccccc1 | inactive
13 | NC(=O)C1CCN(CC(O)COc2ccc(-c3ccccc3)cc2)CC1 (stereo not given) | inconclusive [inhibitor, single point]
14 | COCOCCn1cc(CN2CCS(=O)(=O)N(Cc3ccc(-c4ccc(C)cc4)cc3)C(C(C)C)C2=O)nn1 (stereo not given) | inconclusive [inhibitor, single point]
15 | O=C(c1ccc(F)cc1)C1CCN(C(=S)Nc2ccccc2)CC1 | inconclusive [inhibitor, partial curve, poor fit]
16 | CC(C)OC(=O)CSc1nc2cccnc2n1C1CCCCC1 | inconclusive [inhibitor, single point]
17 | CCc1ccc(S(=O)(=O)Nc2cccc(-c3ccc4nnc(C)n4n3)c2)s1 | inactive
18 | CN(C)c1ccc(N=Nc2nc3ccccc3n2C)cc1 | inconclusive [inhibitor, full curve, poor fit]
19 | O=C(Nc1ccccc1)N1N=C(c2cccs2)CC1c1cccs1 (stereo not given) | inconclusive [inhibitor, single point]
20 | CCc1nc2ccc(C(=O)Nc3ccc(C(=O)N(C)C)cc3)cn2c1N(C)CCCc1ccccc1 | inconclusive [inhibitor, single point]

Row | SMILES | Potency
21 | Cc1cc2cc(C(=O)N3CCc4c([nH]c5ccccc45)C3c3ccccn3)ccc2o1 (stereo not given) | inconclusive [inhibitor, single point]
22 | Cc1ccccc1NC(=O)N1CCc2cc(S(=O)(=O)N3CCC(C)CC3)ccc21 | inactive
23 | COc1ccc(-c2nc(C)c(CCNC(=O)c3ccc(F)c(F)c3)s2)cc1 | inconclusive [inhibitor, single point]
24 | Cc1ccccc1CNC(=O)c1cccc(NC(=O)c2nsc3ccccc23)c1 | inconclusive [inhibitor, single point]
25 | O=C1C(Cc2ccc(O)cc2)NC(=S)N1Cc1ccccc1 (stereo not given) | inconclusive [inhibitor, single point]
26 | CCOC(=O)c1ccc(NC(=S)N(CCCN2CCCCCC2)Cc2ccco2)cc1 | inconclusive [inhibitor, single point]
27 | COC(=O)NCc1ccc(Cl)c(Cl)c1 | inconclusive [inhibitor, single point]
28 | O=C(Cc1ccccc1F)Nc1nc(-c2cccs2)cs1 | inconclusive [inhibitor, partial curve, poor fit]
29 | CCN(CC)S(=O)(=O)c1ccc(C)c(NC(=O)CSc2nc3ccc(C)cc3[nH]2)c1 | inconclusive [inhibitor, partial curve, poor fit]
30 | COc1cccc(-c2ccc(NC(=O)C3CCCN(Cc4cnn(C)c4)C3)cc2)c1 (stereo not given) | inconclusive [inhibitor, single point]
31 | CCOC(=O)c1cc(-c2ccc(F)cc2)n(CC(=O)Nc2nccs2)c1C | inconclusive [inhibitor, single point]
32 | CC1(C)CC(=O)C/C(=N/Nc2nc3ccccc3s2)C1 | inconclusive [inhibitor, single point]
33 | COc1ccccc1N1CCN(CCNC(=O)Nc2cccc(C)c2C)CC1 | active: 3.16 µM
34 | Cc1ccc(S(=O)(=O)N(C)C)cc1NC(=S)N1CCc2ccccc21 | inconclusive [inhibitor, partial curve, poor fit]
35 | CCSC(=O)CCCCCCCCCCCO | inactive
36 | c1ccc(C2NCCc3ccccc32)cc1 (stereo not given) | inconclusive [inhibitor, partial curve]
37 | NNc1nc(-c2ccccc2)cs1 | inconclusive [inhibitor, full curve, poor fit]
38 | COc1ccc(Cl)cc1NC(=O)Nc1cccc([N+](=O)[O-])c1C | inconclusive [inhibitor, full curve, poor fit]
39 | Cc1cc(C)cc(NC(=O)C(=O)NCC(c2ccc3c(c2)OCO3)N2CCOCC2)c1 (stereo not given) | inactive
40 | CCOCCCN(C)C1CCN(C(=O)c2oc3ccccc3c2NC(=O)c2cccc([N+](=O)[O-])c2)CC1 | inconclusive [inhibitor, partial curve, poor fit]
